Drawing on PubChem BioAssay (NCI), this text covers GI50 and TGI for 87 compounds.

Values joined by “and” are separate entries in the source; they are usually repeats but may differ in a detail not shown here. Equal values may be shown once.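 Briefly, cells in 96-well plates were exposed to five compound concentrations for 48 h, and endpoints were estimated by linear interpolation. The concentration for 50% growth inhibition is given as GI50. TGI is the concentration that stops growth completely.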

In the assay the test system is NCI-H322M lung. Kind of assay: inhibition of tumour cell growth, NCI panel, 48 h.
For the compound `COc1cc2c3c(c1)c1cc(OC)c(OC)cc1c[n+]3CC2`, the GI50 is 12.7 µM; the TGI is 50 µM and > 100 µM.

Consider `CC(=O)[C@@H]1CCC=C2CC[C@]3(C)[C@@H](CC[C@@H]4[C@@]5(C)CCCNC(C)(C)[C@@H]5CC[C@]43C)[C@H]21`, for which the GI50 was 1.73 µM and the TGI turned out to be 3.14 µM. `CCOC(=O)C1(Cc2ccccc2)CCCCCN1` (configuration not stated): the TGI was more than 100 µM. Regarding `O=[N+]([O-])c1ccc(N/N=C/c2c(O)ccc3ccccc23)nc1`, the GI50 was 6.75 µM and the TGI is more than 100 µM. In the same order, the values of `CCOC(=O)c1[nH]c(-c2ccc(Cl)cc2)cc1-c1cccnc1` are 0.664 µM and more than 100 µM. In the same order, the values of `COC1CC2C=C(C)/C=C/C=C/C(=O)NC(c3ccccc3)C/C=C/CCC(O)CC(=O)C2=C1O` (configuration not stated) are 0.337 µM and 1.24 µM. As to `CCOC(=O)C(Cc1c[nH]c2ccc(N(CCCl)CCCl)cc12)(NC(C)=O)C(=O)OCC`, the GI50 is 44.4 µM and 43.3 µM; the TGI was 271 µM. As to `CCNC(=O)C#CC(=O)NCC`, the GI50 is more than 100 µM and the TGI is more than 100 µM. Compound `Cn1c(C(C#N)c2nc(Cl)ncc2Br)nc2ccccc21` (configuration not stated) yielded a TGI of more than 100 µM. Still for that read-out and setting: as for `C[C@]1(CO)[C@H]2CC[C@@]34C=C[C@@](CO)(CC[C@H]3[C@]2(C)CC[C@H]1O)C4`, the figure is more than 100 µM. The same measure, in the same setting: then `Cc1cc(-c2[nH]c(C(=O)O)cc2I)on1`, with more than 100 µM. The same measure, in the same setting: then `O=c1cc2ccccc2nn1Cc1ccccc1Cl`, with more than 100 µM; and `CN1NC2(CCCCC2)ON=C1c1ccccc1`, with more than 100 µM.

The compound `O=C(Nc1nc2c(=O)[nH]cnc2s1)c1ccccc1` showed a TGI of more than 100 µM. The same measure, in the same setting: then `CCOC(=O)/C(=C\c1ccc(N(C)C)cc1)S(=O)(=O)C(F)(F)C(F)(F)C(F)(F)C(F)(F)F`, with more than 100 µM. As for `CN(C)c1ccc(/C=C2\N=C(NN)NC2=O)cc1`, the TGI was more than 100 µM. Same read-out and setting: then `O=C1C=C(Br)C(=O)C12CCc1ccccc12` (configuration not stated), with 56.2 µM. Consider `Clc1cc2c(c(CSC3=NCN(CC4CC4)CN3)c1)OCOC2`, for which the TGI was 80.7 µM. For `CC(C)=CC(=O)O[C@H]1C(=O)O[C@@H]2C[C@H]3[C@H](C)C(=O)C(O[C@@H]4O[C@H](CO)[C@@H](O)[C@H](O)[C@H]4O)=C[C@]3(C)[C@H]3[C@@H](O)[C@H](O)[C@]4(C(=O)O)OC[C@]32[C@@H]14`, the GI50 is more than 100 µM and the TGI is more than 100 µM.

Consider `CC(C)(C)NCc1cc(C(C)(C)C)cc(-c2ccc(Cl)cc2)c1O`, for which the TGI was 30.1 µM. The same measure, in the same setting: as for `Cc1ccc(S(=O)(=O)NC(=O)NC23CC4CC(CC(F)(C4)C2)C3)cc1`, the figure is more than 100 µM; as for `C/C(=N/NC(=S)Nc1ccccc1Cl)c1cccc(/C(C)=N\NC(=S)Nc2ccccc2Cl)n1`, 8.28 µM.

Turning to `CC(=O)O[C@H]1CC[C@@]2(C)C(=CC[C@H]3C4=CC=C(C(C)=O)[C@@]4(C)CCC32)C1` (some centres not stated), the TGI is more than 100 µM.

`CNc1ccc(-c2nc3cc(C)ccc3o2)cc1` gave a TGI of more than 100 µM.

Compound `CCC(=O)C(C)C1=Nc2nnc(CCCCCCCc3nnc4n3C(=O)C(C(C)C(=O)CC)=N4)n2C1=O` (configuration not stated) showed a TGI of more than 100 µM.

The compound `C=C=C(CC)C(C(=O)OC)N(CC)CC` (configuration not stated) showed a TGI of more than 100 µM.

Compound `C(CCC[Te][Te]CCCCCCOC1CCCCO1)CCOC1CCCCO1` (configuration not stated) yielded a TGI of 41.2 µM. Take `Clc1ccc(Cc2nc3ccc(CCN4CCN(c5ccccc5)CC4)cc3[nH]2)cc1`: the TGI is more than 100 µM. As to `COc1cc(/C=C\[N+](=O)[O-])ccc1OCc1ccccc1`, the GI50 was 3.24 µM and the TGI was determined as 11.4 µM.

In the case of `CC(C)[C@@H]1CC[C@@H](C)C[C@H]1OC(=O)/C=C1/C2C=CC(O2)C1C(=O)O[C@@H]1C[C@H](C)CC[C@H]1C(C)C` (some centres not stated), the TGI is more than 100 µM. On the same count and under the same terms, then `C=C1C[C@@H](O)C[C@@]2(C)C[C@@H]3OC(=O)C(=C)[C@@H]3C[C@H]12`, with 70.8 µM. For the compound `Cc1nc2ccc(Nc3nc(NCCN4CCOCC4)nc(Nc4ccc(F)cc4)n3)cc2n1Cc1ccccc1`, the GI50 was 4.36 µM and the TGI turned out to be 42 µM. In turn, `Cc1ccnc2[nH]c(-c3cccc(Cl)c3)cc(=O)c12` displayed a TGI of more than 100 µM. As to `COC(=O)/C=C(\C)C(=O)N(C)c1ccccc1I`, the TGI is more than 100 µM. The same measure, in the same setting: as for `CCCCc1c(C(=O)OC(C)(C)C)cc(C#Cc2cc(C(=O)OC(C)(C)C)c(CCCC)c(C(=O)OC(C)(C)C)c2)cc1C(=O)OC(C)(C)C`, the figure is more than 100 µM; as for `O=C(Nc1nc2ccccc2n1Cc1ccccc1)NC12CC3CC(CC(C3)C1)C2`, 79.7 µM; as for `C1CCN(c2nsc(N3CCCCC3)n2)CC1`, more than 100 µM.

`COc1ccc2[nH]c(Cl)c(/C=C3/C(=O)Nc4cc(C)c(OC)cc43)c2c1` gave a TGI of 26.3 µM.

As to `CC(C(=O)ON1C(=O)CCC1=O)c1ccc(C(=O)c2ccccc2)s1` (configuration not stated), the TGI is more than 100 µM. `COc1cc(C2SCC(=O)N2c2ccc(-n3c(-c4ccccc4)nc4ccccc4c3=O)cc2)ccc1O` (configuration not stated) gave a TGI of more than 100 µM.

The compound `O=C(Nc1c[nH]c(=O)[nH]c1=O)C(Cl)Cl` showed a TGI of more than 100 µM. On the same count and under the same terms, then `C(=N\OCc1ccccc1)/c1ncccc1C1OCCO1`, with more than 100 µM.

With `Nc1nnc2cc(Cl)ccc2n1`, the GI50 is more than 100 µM and the TGI is more than 100 µM. For the compound `Cc1sc(C)c(Cc2c(C)sc(C)c2CCl)c1CCl`, the GI50 was more than 100 µM and the TGI is more than 100 µM. Compound `Cc1ccc(OCC2OC(n3cnc4nc(Cl)nc(Cl)c43)CC2Oc2ccc(C)cc2)cc1` (configuration not stated) had a TGI of 29.5 µM. With `Cc1ccsc1/C=N/Nc1cc(C)c2cccc(C)c2n1`, the TGI was more than 100 µM. Still for that read-out and setting: as for `O=C1CSC(/C(=C\c2ccc(Cl)cc2)c2nc3ccccc3[nH]2)=N1`, the figure is 20.4 µM. The compound `O=C1C[C@@H]2C(COC(=O)c3ccccc3)N(OCc3ccccc3)C[C@@H]2O1` (some centres not stated) displayed a TGI of more than 100 µM. On the same count and under the same terms, then `COC(=O)C(C)(N=Cc1ccccc1)c1ccccc1` (configuration not stated), with more than 100 µM. Regarding `CCOC(=O)C(=Cc1ccccc1[N+](=O)[O-])C(=O)OCC`, the GI50 is 11.3 µM and the TGI came to 25 µM. Regarding `CC(C)CCC[C@@H](C)[C@H]1CCC2C3CC=C4C[C@@H](Oc5c6ccccc6nc6ccccc56)CCC4C3CCC21` (some centres not stated), the TGI was more than 50 µM. Same read-out and setting: as for `COc1ccc(C(N)=O)cc1N=NN(C)C`, the figure is more than 100 µM. With `COc1ccc2c(Nc3ccc(NS(C)(=O)=O)cc3)c3ccccc3nc2c1`, the GI50 is 1.02 µM and the TGI is 8.74 µM. For `CC1(C)N=C(C(N)=O)c2ncn(CCO)c2N1`, the TGI is more than 100 µM. Regarding `Cc1cc(C)c(C[N+](C)(C)C)c(C)c1C`, the GI50 is 0.468 µM and the TGI is more than 76.3 µM. In turn, `CC(C)C(C/C=C1\CC(CO)(COC(=O)c2ccccc2)OC1=O)C(C)C` (configuration not stated) had a TGI of 23.1 µM.

As for `c1ccc(-c2sc(-c3cccs3)cc2Cc2cccs2)cc1`, the TGI is more than 10 µM. On the same count and under the same terms, then `NCCCn1c2ccccc2c2c3c(c4c(c21)CCC(O)CC4)C(=O)NC3=O` (configuration not stated), with 14.7 µM. Consider `CC[C@@]1(O)C(=O)NCc2c1cc1n(c2=O)Cc2cc3c(N)cccc3nc2-1`, for which the GI50 is 4.23 µM and the TGI amounted to 67.8 µM. Regarding `C=C1C(=O)OC2CC1C(O)C/C(C)=C/CC/C(C)=C/C(O)CC2C` (configuration not stated), the TGI was found to be 23.2 µM. Regarding `N#Cc1c(-c2ccccc2)cc(-c2ccc(Nc3nc(Nc4ccc(Cl)cc4)nc(Nc4ccc(Cl)cc4)n3)cc2)nc1N`, the GI50 was 61 µM and the TGI is more than 100 µM. `COc1ccc(O[C@H](COCc2ccccc2)C[C@@H]2COC(C)(C)O2)cc1` registered a TGI of more than 100 µM.

As for `CC(=O)N1CCc2c([nH]c3ccc(Br)cc23)C1c1ccccc1` (configuration not stated), the TGI is more than 10 µM.

For the compound `C=C1C(=O)O[C@H]2[C@H]1CC/C(COC(=O)NCc1ccc(Cn3c(=O)sn(CCCCl)c3=O)cc1)=C\CC[C@@]1(C)O[C@@H]21`, the GI50 was 14.1 µM and the TGI is 27.2 µM. The compound `O=C1O/C(=C(\Br)c2cccc3ccccc23)c2ccccc21` had a TGI of more than 54.6 µM. The same measure, in the same setting: then `COC(=O)c1cc(NC(=O)c2cc(NC(=O)c3cc([N+](=O)[O-])cn3C)cn2C)cn1C`, with more than 100 µM; and `Cc1ccc(N=Nc2c(O)ccc3cc(S(=O)(=O)O)ccc23)c(C)c1`, with more than 100 µM. On the same count and under the same terms, then `CN1CCCN(C)C1c1cc([N+](=O)[O-])ccc1O`, with more than 100 µM; and `COc1ccc(S(=O)(=O)O)cc1-n1nc(C(=O)Nc2ccccc2)n[n+]1-c1cc(S(=O)(=O)[O-])ccc1OC`, with more than 100 µM.

The compound `CCOc1cc2c(NCCCN(CCO)CCO)ncnc2c(OCC)c1OCC` had a TGI of more than 100 µM. Still for that read-out and setting: as for `O=C1Sc2ccc(Br)cc2C(=O)Sc2ccccc21`, the figure is 36.5 µM; as for `O=[N+]([O-])/C(C(Cl)=C(Cl)Cl)=C1\NCCO1`, more than 100 µM; as for `[Se]=P(c1ccccc1)(c1ccccc1)c1ccc(C(c2ccccc2)=P(c2ccccc2)(c2ccccc2)c2ccccc2)cc1`, 10.2 µM. For `Clc1ccc2[nH]cc(-c3nc(-c4c[nH]c5ncccc45)cs3)c2c1`, the GI50 is 4.29 µM and the TGI is 23.3 µM. Consider `Cn1c(=O)c2c(nc3n(Cc4ccccc4)c(=O)c(NCCBr)cn23)n(C)c1=O`, for which the TGI is more than 100 µM. On the same count and under the same terms, as for `N#Cc1c(SCc2ccccc2)nc(-c2ccccc2)[nH]c1=S`, the figure is 73.1 µM; as for `Cn1ccn2c3nc4ccccc4nc3c(=O)c(C#N)c12`, more than 100 µM; as for `CN1C(=S)C(c2ccccc2)Sc2ccccc21` (configuration not stated), more than 100 µM. The same measure, in the same setting: then `Cc1c(C(=O)NCCO)[n+](=O)c2cc(Cl)ccc2n1[O-]`, with more than 100 µM; and `Nc1nc2c(c(=O)[nH]1)N(C=O)C(CNc1ccc(C(=O)N[C@@H](CCC(=O)O)C(=O)O)cc1)CN2` (some centres not stated), with more than 125 µM. The same measure, in the same setting: as for `Cn1c(=O)nc2n(-c3cccc(F)c3)c3ccccc3nc-2c1=O`, the figure is 82.3 µM; as for `COc1cc2noc(-c3ccccc3)c2cc1OC`, more than 100 µM. `NNc1nc2ccccc2c(=O)n1NC(=O)C(=O)Nc1cccc(C(F)(F)F)c1` returned a TGI of more than 100 µM. For `O=c1[nH]nc(-c2ccccc2)n1/N=C/c1c[nH]c2ccccc12`, the TGI is more than 100 µM. Regarding `CC(C)c1ccc(C(=O)Nc2sc3c(c2C#N)CCC(=O)C3)cc1`, the GI50 is 6.13 µM and the TGI is more than 100 µM. The compound `N=c1nnc(=O)c2c(s1)-n1ncc(C(=O)O)c1NN2` gave a TGI of more than 100 µM. Still for that read-out and setting: as for `CCCCCCCC(=O)OC(CBr)COC(=O)C(C)(C)C` (configuration not stated), the figure is more than 100 µM.
